The record followed here is article PMC12136788.

The other results are listed elsewhere or left out.

T1: UNK ZnF1-3 (human, UniProt Q9C0B0 31-174)
T1 sequence: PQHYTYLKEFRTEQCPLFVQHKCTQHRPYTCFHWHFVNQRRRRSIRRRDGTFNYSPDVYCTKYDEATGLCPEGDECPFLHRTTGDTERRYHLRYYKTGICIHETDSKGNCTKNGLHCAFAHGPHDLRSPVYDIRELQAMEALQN

B1: chr8:73998637:73998638:+_ENSMUSG00000074247_ENSMUST00000124745|mus_hu|motif|central (ssRNA)
RNA: GGGAGUUCUACAGUCCGACGAUCCUUGAUACAGGUUACAGCAUAAAUAAAAACUCAAGGAAAAUAAAUACAUCGGCUCCGGUGAGGUUGGAAGUGGUGUGGACGCAGGGUGUGGAUGGGCCGGCAGGGAGGCGGGCGGGCGGGCAACAGAGGAUUGAGCAUCA
B2: chr1:220276048:220276049:+_ENSG00000067704_ENST00000302637|hu_hu|hu_hu_hu_mus_True|78_88 (ssRNA)
RNA: GGGAGUUCUACAGUCCGACGAUCGCAAAUUGCCUGGUUGGCGGGAAUCGUCCAAGGUUGUGUGGUCCAAACUAAAACGCUAACAGGGGAUGAGGCAUCUGUAAGAGACUCCAACUUCGGAGGAGGUCUCAGGAGGGGGAAUCUCAACAGAGGAUUGAGCAUCA
B3: chr5:156566167:156566168:-_ENSG00000155868_ENST00000420343|hu_mus|motif|central (ssRNA)
RNA: GGGAGUUCUACAGUCCGACGAUCAAGAUCUUCUAGCUUUUCUUCUCGUUUUAUACUCCCAGGACUUCUUAUUAAGAUGUCGGAAAGGUCUAAGAAAUUAAUCAGUAUAGACAUAUUGAGUUUUCUCAGCUCUUUCUUAUGAUCCAACAGAGGAUUGAGCAUCA
B4: chr11:88707168:88707169:-_ENSMUSG00000018428_ENSMUST00000018572|mus_hu|FALSE|FALSE (ssRNA)
RNA: GGGAGUUCUACAGUCCGACGAUCCAAUGCCAAGGGGAAGAGCGAACGGAACUGGAUUGCCAUCCUGGAGGCUUGAAGUAAUUACACCAGCUCCUCGGCUACCAUCGGGGUGCGGGAUGCGGAGUCCGCGCGCCGCCGCCGGCCCAACAGAGGAUUGAGCAUCA
B5: chr14:23058014:23058015:-_ENSG00000129562_ENST00000250498|hu_hu|FALSE|FALSE (ssRNA)
RNA: GGGAGUUCUACAGUCCGACGAUCAGCAGGUACGCGUCCAGCAACUUCAGACGCUGCGGAGUGGAGCUCAAGUACUCUUCUAAGAACCGCGAAAUGACAGACACUACCGACGCCGACAUAACUGCACGCAAGGUACUCCAGUCCCAACAGAGGAUUGAGCAUCA
B6: chr12:39756943:39756944:-_ENSG00000139116_ENST00000544797|hu_mus|hu_hu_hu_mus_False|1_88 (ssRNA)
RNA: GGGAGUUCUACAGUCCGACGAUCGGUUUGGCUGUUACCCCCAAGGGAAUCCUGUAGGAGUCUUGUCAGCUUAGAGUCUCUGUAAGGGACAUGGGUGGCUCUCUUGCUCUUGUCCCCCAAGGCGCUGAUUACAUUCCCAAGUGCCAACAGAGGAUUGAGCAUCA
B7: chr3:176767854:176767855:-_ENSG00000177565_ENST00000430069|hu_hu|hu_hu_hu_mus_False|28_88 (ssRNA)
RNA: GGGAGUUCUACAGUCCGACGAUCGACAUCCUUGUUACUGGGCACGUCUUGCCCUCCUUCCCGUAUGCAGUGUCUAAGCACGAGCUGCGUAGGGCCACUCGUGCUGUUCUCACUAAGGUUCCAGAUUCUUGCCGUGGAGUCUCCCAACAGAGGAUUGAGCAUCA
B8: chr7:54825262:54825263:-_ENSG00000132432_ENST00000352861|hu_hu|hu_hu_hu_mus_False|48_48 (ssRNA)
RNA: GGGAGUUCUACAGUCCGACGAUCCUGCCGGCUGGGCUCCACAAACUGCAUUACCUGAUCCAUGUUUGUUGGAUGGCGGAUUGAGAGUGCCAGGGACCGUAGCUCAGGAGAGAACCGAGCCCAACGGAACCGGAAGCUGGCAACCAACAGAGGAUUGAGCAUCA
B9: chr10:33190432:33190433:-_ENSG00000150093_ENST00000302278|hu_mus|hu_hu_hu_mus_True|88_98 (ssRNA)
RNA: GGGAGUUCUACAGUCCGACGAUCUACAUUUUCCAAACCUGCACAUGAGUAAAACCAUGGCCACAGAGCCCCAAAACUACCCUACUGUGACUAAGAUGCUGCUGCUGUGAGCUUGGUGUUGCAAAAUCCGCCUGAGUAGGAUUCCAACAGAGGAUUGAGCAUCA
B10: chr2:48026839:48026840:+_ENSG00000116062_ENST00000540021|hu_hu|hu_hu_hu_mus_False|38_88 (ssRNA)
RNA: GGGAGUUCUACAGUCCGACGAUCAUAGUGAGCCACUAGCGUCCUAAAUCUCGAACAGUGGCGGUCAUCCGAAAACUGGCCGAUGAAAAACUUGCCCAGUGAAGUAUCCACAAAGCAAACACCAUACACACGAGUGUGACCAGACAACAGAGGAUUGAGCAUCA
B11: chr18:58105177:58105178:+_ENSMUSG00000024597_ENSMUST00000115366|mus_hu|FALSE|FALSE (ssRNA)
RNA: GGGAGUUCUACAGUCCGACGAUCGUUCUCUAUGAAACCUGUAUCUGUUAAUCUGAUUUUGAACAUAUGUUUACUUAAACCAAAGUUUGCCUAAUGAAUCUUGAUCACUUUAAAAUGCAAAAUACCAGCAACAUAAAUUUCAUUCAACAGAGGAUUGAGCAUCA
B12: chr1:67050029:67050030:-_ENSMUSG00000026000_ENSMUST00000119559|mus_mus|FALSE|FALSE (ssRNA)
RNA: GGGAGUUCUACAGUCCGACGAUCUUCCUUCAAAAGCAAGGGCAAUAUGUAGCCCAGAGUAAUACACAGAGUCAUGCUGUAAGCGGCAGGAGACAUGCUUUCUUUUCAGAGUUCAAAUGCAGGGAACUUGGCCUUUGUGGGGACCAACAGAGGAUUGAGCAUCA
B13: 144006312_144006432_1124_CDS_ENSMUSG00000029587_ENSMUST00000032591|mouse|control|control (ssRNA)
RNA: GGGAGUUCUACAGUCCGACGAUCCUGGUGGACGGUGAGGGUGCCCUUCUGGCAGAAGGACUUCCCACACUGACUGCACUUGAAGGGCUUCUCUCCUGUGUGAGUCCUCUGAUGGAUGACGAACUUGGACUUUUUGCAGAAGGACAACAGAGGAUUGAGCAUCA
B14: chr3:119450855:119450856:-_ENSMUSG00000028134_ENSMUST00000029780|mus_hu|mus_mus_mus_hu_False|78_98 (ssRNA)
RNA: GGGAGUUCUACAGUCCGACGAUCUGUGGUGCCACUAAGAGGUGUAUUUGCUGUCUGGACCGCUGUCACAGCUUGAAGAACUGCCUGAGCACGUUGGUUUAAUGUAUUAUCUGUCUUUAGUUCUUUGUGAUUCGAGUACUGGAUCAACAGAGGAUUGAGCAUCA
B15: chr6:108533379:108533380:-_ENSG00000112335_ENST00000426155|hu_hu|motif|central (ssRNA)
RNA: GGGAGUUCUACAGUCCGACGAUCGCCCCUUCUUGCCAAAUUUCAGGCAUGUCUUAUUUUAGAUGGAGUAUAGCUUUUAUCGGUUAUUUCAUCUUGUAAAAACAUGUGAAGACAACGUUCGUUCUGUGCCAGAGGAUGACCAGCCAACAGAGGAUUGAGCAUCA
B16: chr3:10015032:10015033:+_ENSMUSG00000027533_ENSMUST00000029046|mus_mus|mus_mus_mus_hu_True|78_98 (ssRNA)
RNA: GGGAGUUCUACAGUCCGACGAUCGUUUUUACCAUCACACGUAAUGAUACAAUCUGGCUUGGCCAUGGCGCCCAUUUUUCGCAAAGCUAUUCCCACUCCUAGCUCCUUCAUGUAUUCAUCAAAGCCUUUGCUGUCCACCAGGCGCAACAGAGGAUUGAGCAUCA
B17: chr4:63681588:63681589:-_ENSMUSG00000028364_ENSMUST00000107372|mus_hu|FALSE|FALSE (ssRNA)
RNA: GGGAGUUCUACAGUCCGACGAUCGCUUGUGCCGGAUGACUUUCUUGAGGACCCCACCUUCGGUAGCGAGGGCAAGGAAAGCAAGAAAGACACCUGCCAACAGCUGAGUCAUGGCCCCCAUGGUGGAGGUGGGUUUGGCUGGGUCAACAGAGGAUUGAGCAUCA
B18: chr15:66169770:66169771:+_ENSG00000103769_ENST00000567671|perfect_dup|motif|central (ssRNA)
RNA: GGGAGUUCUACAGUCCGACGAUCGUCCCAUAUCUGUGCCUUUAUUGUUUUCCCAUCAACCUGGAUGCUUCUUGUUGCAAACUCGGCUCCAAUGGUACUCUUGCUUUCCAGAUUAAACUCAUUUCGAGUAAAUCGAGACAGGAGCAACAGAGGAUUGAGCAUCA
B19: chr22:32879901:32879902:+_ENSG00000100225_ENST00000397426|hu_mus|hu_hu_hu_mus_False|58_108 (ssRNA)
RNA: GGGAGUUCUACAGUCCGACGAUCCUCUGCCAUAUGCAUGGCAUCCUGAAUUGACUCAGCUUCAACAUUUUGACUAGGCCCUAACAUACUGUCAUCAGUCCAGGCAUCAAAUGGGGUGGCCUGUCCUUGGGAUGAAUCAGUCCCCAACAGAGGAUUGAGCAUCA
B20: 7411273_7411393_443_CDS_ENSMUSG00000040021_ENSMUST00000165952|mouse|control|control (ssRNA)
RNA: GGGAGUUCUACAGUCCGACGAUCUUUUGAUAAAUUCCUCAGGGAUUCUCGGAUCUCCUGCAGCAUCUGUCGGCUGCUGCCAGGGUAGUUGCUGGCAGGAAAGGUCUUAGGCCUCAUCUGUCUGUACCCUUCUGGCUUUUCACCCAACAGAGGAUUGAGCAUCA
B21: 82873911_82874031_790_3pUTR_ENSMUSG00000042724_ENSMUST00000035987|mouse|control|control (ssRNA)
RNA: GGGAGUUCUACAGUCCGACGAUCGCCUCUUGGCGAACGUUCUCUAUGGUCUGGCUGAUGUCCUCAUCAGGGUCGUGACGAGCUGCCUUCACGGCCACCUCAUCGCCCGCCCAGAAAGCACGAUAAACUUUCCCAAAGCCCCCACAACAGAGGAUUGAGCAUCA
B22: chr13:31722580:31722581:-_ENSG00000120694_ENST00000320027|hu_hu|motif|central (ssRNA)
RNA: GGGAGUUCUACAGUCCGACGAUCUGAAUCAUGGUUCCAGAUCAGAGAUAUUGGAAAAGGAACUGCAUCUGUGACGGAAAAUUCUCGGACUUUAAAUGCCGGGGAAAGUAUUGCACACUGUAAUGCACAUCCUCUGGCUACUGCCAACAGAGGAUUGAGCAUCA

This assay concerns the target T1, UNK ZnF1-3. As to the kind of experiment: nsRBNS (natural sequence RNA bind-n-seq); RBNS binding buffer (assumed for nsRBNS): 25 mM Tris pH 7.5, 150 mM KCl, 3 mM MgCl2, 0.01% Triton X-100, 500 ug/ml BSA, 20 U/ml SUPERase-In, 4 C; UNK is unkempt and MSI1 is Musashi-1; names of the RNAs are library labels; protein concentration not given here; high values mean tight binding.
On to B1, for which the binding signal is 1.9 enrichment R.
B2 yielded a binding signal of 1.67 enrichment R.
On to B3, for which the binding signal came to 0.426 enrichment R.
Under B4 stands 1.33 enrichment R.
For the molecule B5, the binding signal worked out at 1.33 enrichment R.
On to B6, for which the binding signal was 0.61 enrichment R.
The figure for B7 is 0.377 enrichment R.
The figure for B8 is 1.21 enrichment R.
Under B9 stands 1.15 enrichment R; under B10, 1.12 enrichment R.
Take B11: the binding signal is 0.638 enrichment R.
The figure for B12 is 1.33 enrichment R; for B13 it is 0.495 enrichment R; for B14 it is 0.701 enrichment R.
The figure for B15 is 0.978 enrichment R.
B16: the binding signal was found to be 0.731 enrichment R.
Under B17 stands 1.06 enrichment R; under B18, 0.678 enrichment R.
As to B19, the binding signal came out at 0.945 enrichment R.
Under B20 stands 0.198 enrichment R; under B21, 0.876 enrichment R; under B22, 0.926 enrichment R.
